Measurements: the supplement of paper PMC3334620
Whole data set: some 33,000 sequences, median “E-score (-0.5 to 0.5)” near -0.053, cut for the highest 2% near 0.37. This is one part of the list.

Each sequence was assayed against Hap1 (UniProt P0CE41) (assay: PBM E-score (8-mer binding enrichment) (E-score (-0.5 to 0.5)); higher = stronger / more preferred TF binding; most listed sequences are background and not binding sites). Details: protein concentration: 200 nM; construct: GST-DNA-binding domain.
Protocol: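 Universal 'all 10-mer' protein binding microarrays (Agilent AMADID 015681) probed with GST-tagged S. cerevisiae TFs (full-length or DBD) made by in vitro transcription/translation (PURExpress), about 100-200 nM. Bound TF was detected with fluorescent anti-GST. Each ungapped 8-mer (which stands for itself and its reverse complement) is scored by the PBM enrichment score (E-score), a modified Wilcoxon-Mann-Whitney statistic from -0.5 to +0.5, computed with the Universal PBM Analysis Suite. Scale: above 0.35 generally sequence-specific binding.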

Sequence of UniProt P0CE41 (P0CE41 whole entry, the tested form may be a part): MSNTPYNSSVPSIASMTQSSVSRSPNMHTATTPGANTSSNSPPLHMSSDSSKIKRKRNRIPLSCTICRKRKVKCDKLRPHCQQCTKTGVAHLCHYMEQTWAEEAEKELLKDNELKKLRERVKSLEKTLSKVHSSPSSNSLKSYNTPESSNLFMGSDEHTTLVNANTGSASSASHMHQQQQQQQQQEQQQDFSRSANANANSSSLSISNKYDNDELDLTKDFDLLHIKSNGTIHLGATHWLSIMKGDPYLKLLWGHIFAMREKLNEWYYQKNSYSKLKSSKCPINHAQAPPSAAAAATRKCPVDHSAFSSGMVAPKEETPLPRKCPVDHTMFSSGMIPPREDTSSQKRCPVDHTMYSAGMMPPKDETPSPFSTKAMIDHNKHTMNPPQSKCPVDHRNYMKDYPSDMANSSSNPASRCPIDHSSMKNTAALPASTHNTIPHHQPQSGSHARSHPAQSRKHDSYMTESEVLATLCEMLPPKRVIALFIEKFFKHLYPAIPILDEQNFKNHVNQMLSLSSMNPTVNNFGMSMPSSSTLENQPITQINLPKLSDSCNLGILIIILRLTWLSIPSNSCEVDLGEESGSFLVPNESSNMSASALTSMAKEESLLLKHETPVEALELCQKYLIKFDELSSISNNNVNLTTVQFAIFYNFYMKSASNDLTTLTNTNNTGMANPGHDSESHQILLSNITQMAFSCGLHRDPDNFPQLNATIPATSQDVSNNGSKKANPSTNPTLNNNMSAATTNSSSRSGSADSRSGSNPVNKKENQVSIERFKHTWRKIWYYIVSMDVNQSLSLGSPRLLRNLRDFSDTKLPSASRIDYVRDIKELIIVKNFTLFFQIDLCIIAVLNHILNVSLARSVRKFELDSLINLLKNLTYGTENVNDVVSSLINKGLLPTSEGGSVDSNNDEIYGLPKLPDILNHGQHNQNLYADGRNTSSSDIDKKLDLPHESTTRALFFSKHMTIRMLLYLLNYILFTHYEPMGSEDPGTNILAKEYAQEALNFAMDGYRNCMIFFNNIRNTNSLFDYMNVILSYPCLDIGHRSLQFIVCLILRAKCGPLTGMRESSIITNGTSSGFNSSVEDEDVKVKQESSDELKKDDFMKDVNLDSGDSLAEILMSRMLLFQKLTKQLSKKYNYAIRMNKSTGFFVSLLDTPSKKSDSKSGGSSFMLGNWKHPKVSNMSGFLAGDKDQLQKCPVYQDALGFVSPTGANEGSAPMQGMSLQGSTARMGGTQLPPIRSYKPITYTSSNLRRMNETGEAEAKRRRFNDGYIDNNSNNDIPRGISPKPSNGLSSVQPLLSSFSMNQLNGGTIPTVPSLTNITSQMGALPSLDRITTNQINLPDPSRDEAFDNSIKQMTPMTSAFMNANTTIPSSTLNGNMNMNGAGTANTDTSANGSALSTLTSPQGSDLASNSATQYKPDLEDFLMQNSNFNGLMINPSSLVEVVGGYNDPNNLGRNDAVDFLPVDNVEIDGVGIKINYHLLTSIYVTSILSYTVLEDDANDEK

In order of rising “PBM E-score” value:
1. CAAGACCA  -0.379
2. CCCTAGAC  -0.342
3. CACAAGAC  -0.319
4. ACTTGTTG  -0.296
5. AGTCCCTG  -0.286
6. CCAAGAGG  -0.281
7. ACCTGAGC  -0.279
8. AGACTCGA  -0.27
9. CCTGTGTA  -0.265
10. AAGTCAGC  -0.258
11. ACTCAGAT  -0.255
12. CCCCCTCG  -0.253
13. CCTGAGAA  -0.253
14. CAGGAGAG  -0.247
15. ACTGTCCT  -0.246
16. AGGCTACG  -0.244
17. AAGAGTAT  -0.244
18. AGAGCAAA  -0.237
19. TCTATTCA  -0.234
20. AGTACGCA  -0.233
21. CTCCCTTC  -0.229
22. CATATCCA  -0.223
23. GTTCAGAA  -0.218
24. AAGGTTCA  -0.215
25. AGCTGTGG  -0.212
26. TACCTGAA  -0.211
27. AGTCGCTA  -0.209
28. GGCTACCC  -0.208
29. AATGTAGG  -0.206
30. TTGGCCAA  -0.206
31. CAGAGTCG  -0.201
32. TAGCCCAA  -0.201
33. GACTTGGC  -0.2
34. ACGCAATG  -0.194
35. CTCAGAAA  -0.192
36. AAGGAGGC  -0.191
37. CCTGTGGC  -0.185
38. AAGGAGTG  -0.182
39. ATCTCATA  -0.181
40. CAAGTCCC  -0.181
41. CTACCATC  -0.179
42. AGCACTGC  -0.175
43. CTCTTGAC  -0.174
44. CAGCATAG  -0.169
45. GCTCCCTA  -0.169
46. ACACCAGG  -0.168
47. CTCTGGAC  -0.164
48. AGGTATTC  -0.163
49. CCTGCCTA  -0.16
50. GTCTGCTA  -0.158
51. CAGACTAA  -0.157
52. CGTAACTA  -0.156
53. AAAGGTGG  -0.156
54. CATGACGC  -0.155
55. ATCTATCA  -0.155
56. AATACTAT  -0.152
57. AACAGGCT  -0.152
58. GTGCACAC  -0.151
59. AGTTGTTG  -0.15
60. GACGCGAC  -0.148
61. AGTGGATG  -0.147
62. CACGAGTC  -0.147
63. GTTTTGTA  -0.144
64. ACCAATAT  -0.143
65. ACGTCACC  -0.139
66. CATAGCCA  -0.139
67. GTGGGACA  -0.138
68. ATGTAGGA  -0.137
69. ACCTCGCA  -0.134
70. CTGTTTGA  -0.132
71. CAGAACAC  -0.131
72. CCCTCGAC  -0.128
73. GGTACCAC  -0.128
74. CTAATCCA  -0.127
75. GCAAAACA  -0.124
76. AGCGAGCA  -0.123
77. ACACTCTG  -0.12
78. ATGACAAG  -0.118
79. GTTATGCA  -0.117
80. TCAGTCGA  -0.117
81. ATGGATCA  -0.116
82. GCAAGGGA  -0.114
83. TCGCTAGA  -0.109
84. AAATCAAC  -0.108
85. AACAAGAA  -0.104
86. ACCTTCAC  -0.103
87. AGAGATAC  -0.0992
88. ATAGAATA  -0.0968
89. CACTGAAA  -0.0957
90. ACTTCTGC  -0.095
91. CGCTGTTC  -0.0933
92. ATTATCTA  -0.0923
93. AACATTCG  -0.0918
94. TACTTCTA  -0.0907
95. CTGCAACA  -0.0884
96. GATTACAC  -0.088
97. AATACAGA  -0.0864
98. AAAAGAGC  -0.0828
99. ATCGACAT  -0.0792
100. CGAGCCAA  -0.0791
101. GAGGCCGC  -0.0786
102. ATTTGGCG  -0.0748
103. AACAGCAA  -0.0695
104. AAGCCTGG  -0.0685
105. AACTGTAA  -0.0672
106. GCGCTAGA  -0.0663
107. AAATTTTG  -0.0619
108. ATGTAAAG  -0.0593
109. AATACGCA  -0.0542
110. ACGATTAA  -0.0506
111. ATAGCGCG  -0.0505
112. TGGCTTAA  -0.0483
113. AGGGTGTC  -0.047
114. CTCGCTCC  -0.0453
115. ACAGACCC  -0.0437
116. ACCTCATC  -0.0418
117. TAACTCTA  -0.0411
118. AGATGGCA  -0.0378
119. ACCTTCGC  -0.035
120. ACGAGAGG  -0.0344
121. GAAGGCGA  -0.0329
122. AACTATCA  -0.0298
123. GAGCCTTA  -0.0282
124. CGCCATAG  -0.0279
125. CGCCAAGC  -0.0264
126. GTAAAAAC  -0.0259
127. CCTAAACG  -0.0259
128. GTCATTCA  -0.0197
129. AGCAAGAT  -0.0194
130. ATTATGGG  -0.0181
131. AATACCAC  -0.0139
132. ATCCTATA  -0.0118
133. ACTCTGCG  -0.0115
134. GACCGTAC  -0.00805
135. AGAGCTTA  -0.00803
136. GTATTACA  -0.00763
137. CGTACATA  -0.0072
138. CTCTAATC  -0.00646
139. ACAGTGAC  -0.0062
140. GACATGTC  -0.00499
141. CACGGTGA  -0.00345
142. CGTCAATA  -0.0024
143. CAGAGCGG  -0.00124
144. GTACGTAC  0.00133
145. AAGAAACG  0.00182
146. AGCACAGC  0.00459
147. CCGCCACC  0.0123
148. AAAAAACA  0.0127
149. GCGAATCC  0.0143
150. CTAGGCCC  0.0188
151. TTCGCCAA  0.0199
152. AGGTCTTA  0.0242
153. GAACTATC  0.0256
154. ATCATACC  0.0264
155. AGTTTTAA  0.0305
156. CTGGTACC  0.0305
157. ACACACGC  0.0352
158. GAGACCTC  0.0419
159. ATATACTA  0.0448
160. GCATAAGA  0.0451
161. GTCGCCTA  0.0459
162. CGCATTAC  0.0604
163. ATATTATC  0.0621
164. AACCGTGA  0.0639
165. AAGATATA  0.0708
166. GCTTCTCC  0.0789
167. CTTACCCC  0.08
168. GGCTGACA  0.0808
169. AAGAGACG  0.0838
170. CGGTGCCA  0.0856
171. ATAGCACC  0.0971
172. CAACAAAC  0.0972
173. CAAATCCC  0.1
174. ATAGTACC  0.102
175. ATTGCCAG  0.114
176. AGCGGGTG  0.115
177. GCGCGAAA  0.116
178. AGTATATC  0.119
179. GCTGCACC  0.122
180. CAGAACCG  0.123
181. ATGTCCAC  0.129
182. ATGTACCG  0.137
183. CCCGTGTA  0.14
184. CTGCGCGC  0.152
185. ACGGCCTA  0.157
186. CGATAATC  0.168
187. AGCGGTCA  0.178
188. ATGCGGAC  0.206
189. AACGGGTC  0.206
190. ACGCGGGC  0.229
191. ACCCGTAA  0.238
192. TCCGCGCA  0.244
193. GACTTCGC  0.247
194. CGCGGGGA  0.256
195. ACCGAACG  0.257
196. CATCGGCG  0.264
197. ACCCGACT  0.278
198. CGGTTTTC  0.284
199. CGTTCGGC  0.291
200. CATTCGGC  0.293
201. CGGCCATA  0.31
202. CCCGGAAC  0.31
203. CCACGGAC  0.317
204. CTGTCCGA  0.317
205. AATTTCGG  0.317
206. CTCGGCGC  0.318
207. AGGCCGAC  0.32
208. CTCGGCTA  0.321
209. CGTCGGCC  0.332
210. CGGCTCTA  0.334
211. GCTCGGAA  0.335
212. GGATCCGA  0.36
213. ACCCGGAC  0.372
214. AAGCCGAG  0.372
215. AATTACCG  0.374
216. AAAGCCCG  0.374
217. CGGACCCG  0.387
218. GACCGGAC  0.41
219. CGGGCTTA  0.437
